According to the supplement of paper PMC11417369:
The list shows a part of the results.

These sequences were tested on PfAP2-HC AP2 domain (GST-tagged) (assay: gcPBM binding intensity (ln(normalized median fluorescence intensity)); higher = stronger DNA binding).
Outline: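 Probes on an Agilent 4 × 180k array were primer-extended, double-stranded and 36 bp long, taken from intergenic genomic regions, with negative controls added. GST-tagged P. falciparum DNA-binding domains from E. coli, about 25 μg on average, were applied to the array for 1 h in 1× PBS containing 1% milk, 0.2 mg/ml BSA, 0.5% salmon testes DNA and 0.03% Triton X-100. Binding intensity, obtained after Alexa488 anti-GST antibody detection and a 488 nm scan, is the highest Masliner-normalised natural-log median intensity across replicate spots of either probe orientation.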

Sequence | gcPBM binding intensity (ln)
CATACATACAGACACACACACATATTTATATTTATA [CACACA_site6172] | 11.3
GTTAATTATTAAATTTGTACTCATATATATTATATA [XGTACX_site6862] | 9.72
TCCCTTAATTTTGTGTGTACATATAATATATTTTTA [XGTACX_site2789] | 10
AAGAACTCATTAATAATGTAATATTTTATAATTTAG [CACACA_negctrl_site321] | 9.42
ATAATAAAACTCAAAGTGCATTAGAATAATTGTAAA | 9.69
ATTCATAAATATATTTGTACATATTATATATAAATA [XGTACX_site1907] | 9.5
TATACATATTTCTATTGTACATAAACTAAATCTTCA [XGTACX_site28] | 9.4
ACAATAAATATGTGGTTGCACTTATAATATATTTAT | 9.62
TAATATATAACGTGCACACACACATTTACGTATGAA [CACACA_site1832] | 10
AGCACCCACCAACACACACACACACCCACCCACCCA [CACACA_site8011] | 11.2
GATATTATTGCATATTTACACACGTACTAATTTAAA [CACACA_site8231] | 9.93
TACAATTGTAAAGGCGCACACATATATATATATATA [CACACA_site1392] | 10.2
TTTTTATAATAAAAAAATATAACTATATTAAGCCAC [CACACA_negctrl_site555] | 9.47
AATATATAGGAAAAAGTGCAATAAATGAACAAAATA | 9.88
TTTAATAAAATTCTAGTGCAAAAAGGAAAAAACAAA [GTGCAC_site9642] | 9.63
AATTTTGATATATATTGTACGCATTTTTAAATGCCA [XGTACX_site7694] | 9.61
AAAAGAAATGACAAATTGGATAGATAATAGGGGGTA [GTGCAC_negctrl_site262] | 9.77
GAAGTTTTTTAAAGATGTACTTTTTAAAAATAATGT [XGTACX_site1975] | 9.17
TTCTTAATTTAAAATTGTACTTAAGTAATACTTATG [XGTACX_site3928] | 9.46

Sequence | gcPBM binding intensity (ln)
TTATTTACTTATTGCACACATATAAAATATATTTAT [CACACA_site3101] | 9.8
AAAAAAAAAAAAAATACACACATATATAAATAAATA [CACACA_site6459] | 9.8
GGAATAGTGATATATACACACAAATACATATTTATA [CACACA_site6183] | 9.9
AATTAATAAGAAAGGTGTACAGAAAAAAAAAAATAT [XGTACX_site2106] | 9.78
TTTTTCTAATTATGCACACATATCAAAATATTCAAT [CACACA_site2749] | 9.7
GCTCAATTTTTGGGTACACACAAATGTATAAGAATA [CACACA_site7178] | 9.58
ATATATATAGAAATATGTACGAAAAAAATATCACAT [XGTACX_site746] | 9.85
TATTTATTTTATATATGTACATAATATATTCTTATA [XGTACX_site1619] | 9.75
TATATATATATATATGTGCACTGAAAGAATTATACA [GTGCAC_site9586] | 9.76
AATAAGCTCACGTGTCGTACATTTTTTAAAACAACC [XGTACX_site4707] | 9.78
TCAAAAAAAAAAAAAAAAAAAAAAAAAAAAAAAAAA [CACACA_negctrl_site1753] | 8.78
AAAATCAAAAAAACAAGTACAAATGTGGACTTTTTT [XGTACX_site5363] | 9.64
TGTTCTATGGTTTGTAGTACTTTAATAAATATAAAT [XGTACX_site7823] | 9.65
TGACCTGTTCAGGTAACACACATATAAACCCATACA [CACACA_site31] | 9.98
ATGCTATAGGATCTTACACACATTTTTGTAAAAAAA [CACACA_site1868] | 9.68
TTTTTTTTTTTTTGGTGTACCATAGGTAAAATGATT [XGTACX_site8020] | 9.34
ATTTATGGAAAAAGAACACACAATCAAACAAAAATA [CACACA_site3707] | 10
ATATAAATGAATATATGTACATATATATATATATAT [XGTACX_site6361] | 9.82
CAAAATATAGATGACACACACAAAAAAAGTATATTA [CACACA_site6848] | 10.6

Sequence | gcPBM binding intensity (ln)
AGATAAAAAAAGTACACACACACATATATATATATA [CACACA_site3072] | 10.4
AAGCTTCCTTAATATACACACATATCTGAGTATATT [CACACA_site5939] | 9.89
CATTTACCCTTATTAACACACAAAATATAATACGCT [CACACA_site2565] | 9.83
AAAATTATAATATATACACACATATATATATTAAAT [CACACA_site473] | 9.78
ATAGAAAGTGACAATTGTACATACATATTATATATA [XGTACX_site4390] | 10
TTCTTGGAATACAAGTGTACTTTATTATTATTATTA [XGTACX_site5997] | 9.68
AAAAAAAAAAAAAAAAAAAAATTTCAATTATATTGA [GTGCAC_negctrl_site642] | 9.27
TTTTTTTTTGCCTACTGTACTATTTTTGAGCTCACC [XGTACX_site7967] | 9.63
ACGTAAAATTATTATTGTACATGTAAATAATTTGGA [XGTACX_site8154] | 9.85
TATATTAAACATATATGTACATATTTTTTCTGAACA [XGTACX_site5390] | 9.6
TATTGTTTTTTTGATTTTTTTTTTTTTTTTAATGAA [CACACA_negctrl_site824] | 9.33
ACCAAATCATATATAGCACACAAATTCTTTATTATT [CACACA_site8911] | 9.81
AATATTTTCTGTAATACTTCTTTTCAATTTATTTCG [CACACA_negctrl_site1390] | 9.6
AATATCAATGATGTTACATGCAAGAGAATCCACAAA [TGCATGCA_site678] | 9.7
TAACTCCACAAATAATGTACATATATCACTATATTT [XGTACX_site4911] | 9.84
AATGTATAATTATAATGTACAAATAATATATAATAT [XGTACX_site5407] | 9.78
TATATAATATATATTTTATATTTGTAATAATTTTTT [GTGCAC_negctrl_site497] | 9.51
TACATATGAAAATACACACATACATACATATATATA [CACACA_site1673] | 9.92
ATTTACATTCACTTATGTACTTATATAATTTTATTT [XGTACX_site8150] | 9.93
